Source: the supplement of paper PMC12632987
Whole data set: some 1,800 sequences, median “median log2 fold change of GCK-ALFA target abundance (FLAG IP / Myc IP barcode read proportion)” near 0.14, cut for the lowest 2% near -0.84. The list shows a part of the results.

T1: TRAF2, Q12933
T1 chain: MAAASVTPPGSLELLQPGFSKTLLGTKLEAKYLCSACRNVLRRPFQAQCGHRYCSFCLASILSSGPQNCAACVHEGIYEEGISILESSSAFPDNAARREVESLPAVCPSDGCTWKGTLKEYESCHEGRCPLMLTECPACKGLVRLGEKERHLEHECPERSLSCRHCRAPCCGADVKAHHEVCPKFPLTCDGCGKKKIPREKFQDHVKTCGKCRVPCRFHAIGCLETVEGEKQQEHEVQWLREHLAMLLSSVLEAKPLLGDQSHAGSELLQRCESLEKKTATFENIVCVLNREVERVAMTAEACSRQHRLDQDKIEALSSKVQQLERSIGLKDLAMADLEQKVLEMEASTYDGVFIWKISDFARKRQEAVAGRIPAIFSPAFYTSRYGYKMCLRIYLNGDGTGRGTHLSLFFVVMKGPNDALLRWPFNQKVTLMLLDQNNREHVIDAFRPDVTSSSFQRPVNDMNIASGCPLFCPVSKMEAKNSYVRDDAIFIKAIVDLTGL

B1: traf2_out_18_167_1866 (protein)
chain: SAELQARLDAASDRLVELSEIRRAFRLALEKLEESRELARAVLEEALKKLPDSEELRAALEAFETLSDEEIRAFLEETAERLQKEMNAAYLELERLRAEL
B2: traf2_out_11_131_664 (protein)
chain: MDAVAMARSVAERVDARLAIAEGLSPEERRRLALHALDTVEALAEYLKEHVDEMSKEDIEEAARILRETVERIVALDPAVAPEAEEVLKAIEELLEAAEK
B3: traf2_out_13_95_1099 (protein)
chain: SLELAEKIMEIADRMLDESEAILTELLAKAKEKGIAVEEVQEALHLARTRSINEAIHKLQELSKKYPELKAELDAAIERLEALKREAGREVARLIKEEEE
B4: traf2_out_17_162_1646 (protein)
chain: SELEKKKEELKKKLEELEERVERLEKLSETISEYSKDELSDLIVEASEVKREALLLIQEIDSLKSKLSPEEYEELKSRAEDIVRRAQRVAQKFYDEREKK
B5: traf2_out_12_50_979 (protein)
chain: SEEERQREEDERIAELADRALDEADRIYAETGGDPAAAFARIREEAEANPEKARFLKIVARALRRLFIRRGADPATVDALADETLEFLDEIIEEKVEPPG
B6: traf2_out_11_104_650 (protein)
chain: LTREQARELNDFAMEKRDEALAIARETAAALRAAGHEEEAARVEAVINHPGSGISTIRNTLEELRPRLDPESQKVADAAIAELRALQKEVSDKLNELEAK
B7: traf2_out_16_177_1460 (protein)
chain: ERQKLMDRLVVLSEIRRAARYIVENKEEEAKKHLERARELAEEAGDEEGLEKIKRLEELAKKNTEEAKKEIEELAREAQREAGRLAEEIEKLIKEEAEKE
B8: traf2_out_19_16_1974 (protein)
chain: KEEELKKIEKELKEIREEVRRLEEYFEANEETLTREELSDLLVEASELKRKAQELLEKLKELKDYDPERVEKLEKEAEEIIEEAQRLMNRLVDRYLELLK
B9: traf2_out_11_79_926 (protein)
chain: SELQKELEEILEELERVIERLEEAIENPEDREELVKEIIEELREIYRRVGNLLLRTENTDLGEVATHIRRAIRALEAGKLEEAKRHLEEAAEQVKKIIKE
B10: traf2_out_20_3_2211 (protein)
chain: SELKEEIKKQLAEIKKLLEEAKPGLAPEDYAELQALLKAAEEALEKDPSDALVKLSELKRRLLELADRARAAGDAELAAKLEAAADAANKAANLVYKLLE
B11: traf2_out_13_95_1078 (protein)
chain: SAEANKKIMEIADEMLEKSLKILKELSKKVADNPEMKAAVEEAIHLAETQGINAAIHLLEKLSEANPEYKELLDEAIKKLKEIKEEAGKKVAEILKEEKE
B12: traf2_out_20_3_2212 (protein)
chain: EELRKKVEEELEKIRELLEKAKPRLPEEDYARLKELLERAEEALKEDPSDALVELSELKALLLRLSQEARAAGDEELAALLDEAADAANKAANLVYKILE
B13: traf2_out_6_156_2446 (protein)
chain: MLEKILEETKKKLDELIKKLSEASEEKKIKYISKAAGTVYRALQKLREAGASLEEIKAFSDEILEHVDKKADEYGLDEKTKNLLLASLNAVFDVALEEAK
B14: traf2_out_6_3_2522 (protein)
chain: SEESLLRDARRVLEGMGITTAEQLRRLVKAEVNAVRQLVSRPDTDNATLAGARSVLALSEAIVRVAAETLPDLTEEQRKELLALIEEARALIDAKAAELA
B15: traf2_out_9_108_2594 (protein)
chain: MSEEEKLEKTFKEIEELVKKFIEEVDLTPEQREELEQAIKNARELYEKGLKRTAIILLAIDAARVASKVGEEAVKKLLEELEKIDKIAYNAAKRMVKLLK
B16: traf2_out_11_155_713 (protein)
chain: EEKLKIYQEMVDKNMEIADEALKELEALIEEVAEEDPEVAARLRAVLEESKDAGITTKLLLAIRVLREAGLEEEAARVEKILEEAQKKSNEIAKEAEKKL
B17: traf2_out_11_169_839 (protein)
chain: EEEEKNRKINDFALELNDKAKAELEKFALELAKAAGLDVADIKAIFAANKGKSFSAIAGALIAYFKSQGKEDAAAAVEKKYEELKEEINKKATAFIKSLE
B18: traf2_out_17_162_1478 (protein)
chain: MSPEEELAALEAELEAIEKRVRELEEKLKRLEEMSKEEITDMLVEASELRRRALRLAERFRELAPLIGEERAAALAARAEELAERLQRIANEIYKELEKK
B19: traf2_out_17_162_1584 (protein)
chain: SMLEEELKKLEKELKELKKKLKEFKEELKNLENKSKEELSDLLVEASEAKREARELAVKLEELKPKIGEERAKKLIEEALKIAEEFQKIANELYKEYLKK
B20: traf2_out_20_3_2050 (protein)
chain: EELLKKLEEEMKKLEEKLEEIKKLVDEETAEELEKLLEEVKKAAEKGLEEMLVALSRLRRKLLELAEKAKAEGKEEVAKLLEEAAEYAQRAMNIVYKIIE
B21: traf2_out_18_117_1796 (protein)
chain: SELEKLQEEFEKTLKEFEEELEEAQRVATKLIEKYPKQLPEEAMDAIVEFGEVKRRVQQLVQEAKAHPNDVEKQKKLVEELKKLLEEMKEIKKKLEEILK
B22: traf2_out_9_17_2615 (protein)
chain: SAARKRLAEALLKAIEEELKELVEKGYITEEQAEEILKKVKELIEKGASPDEIIATFLGMVASILLTKSNLSLPEANRIVGEMYRRLRERLAAIEAELAA
B23: traf2_out_13_95_1152 (protein)
chain: SKELAEKINQIADDMLDQVEAKLQALLEKMKAAGKGVEEVQKALDLARYRSVNEAIALLEELSKKYPEFKELFDATIKEIKAIIREAGRKVAELIKEEEA
B24: traf2_out_15_17_1304 (protein)
chain: KISPEKARELTDLALEARDRAKALVAEVLARLEAAGRLTPEQRAELRALLAEPGVSLHVIRDRVAEILRAAGEEALLAEATARLDALIEEVNRKANEMLA
B25: traf2_out_11_155_676 (protein)
chain: EEKRKINNELVDKMSEIDDELKAEIGAIVDEAAAAHPEHAAELNATWAASQPYPGSSRARIMAAKFEELGLEEYAKKLKELLEEAQKKKNEAVKEYEEKL
B26: traf2_out_16_104_1397 (protein)
chain: AEEKQARFEAIIAELEAIAAELGRLANEIYKLMLKASEEKKKELSDALVDVSAVRRAALEAAVQAREDLKAGGDLAAAEARLAALKAAAAAAKAKVEKLK
B27: traf2_out_13_95_1067 (protein)
chain: SKETAKKINELADEAEKKALALLDKAKAELADNPAAVAALDEARRLAETRGIRAAIHALREAKAAMPELAAEFDALIAELEAIRTELGKKVAEIIKEEKE
B28: traf2_out_17_178_1683 (protein)
chain: TKEEERKKISELTDKLIDLTEATGTELLALAKAEGTLTPEELAELEAAIRRGSNRTFTALARRIVPKLKSAEEAQARLDAFEAEARKLNKEIAEAYEKYE
B29: traf2_out_4_186_2312 (protein)
chain: SEIKEARLEGLEIERKAAERLAEELKELIEKGEKPPEEKLKRYVDETVAHLLMVGEYEEANKVEQAYKDKAPQEELLKLLYEAAEKAAELLKKKLEELKK

Target: T1, TRAF2, Q12933
Test: median log2 fold change of GCK-ALFA target abundance (FLAG IP / Myc IP barcode read proportion) (log2 ratio); each designed protein is fused to an ALFA-tag nanobody in HEK293 cells to bring the named protein to FLAG-tagged glucokinase (GCK); Myc marks an untargeted standard; higher = target protein stabilised (more abundant)
Conditions: target protein: 3xFLAG-MCP-GCK-ALFA reporter; HEK293 landing pad (RPLP)
How it was run: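 The readout is target abundance, the per-binder median log2 ratio of FLAG to Myc barcode read proportions. It came from HEK293 landing-pad cells carrying a recombined ALFA-nanobody-fused binder library, induced with 2 μg mL^−1 doxycycline and transfected with a plasmid for a FLAG-tagged target and a Myc-tagged standard. After 48 h, lysates were immunoprecipitated with anti-FLAG and anti-Myc, and circular RNA barcodes were reverse transcribed, amplified and sequenced. Each barcode needed a proportion of at least 10^−7 in both replicates and each binder at least 3 barcodes per replicate, a pseudocount of 10^−6 was added, and the replicates were pooled.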

Q: Which “median log2 fold change” value does the source give for B1 here?
A: 0.231

Q: With B2 as the binder, how does the “median log2 fold change” value read?
A: 0.132

Q: With B3 as the binder, how does the “median log2 fold change” value read?
A: -0.464

Q: How did the “median log2 fold change” value turn out when B4 was run?
A: 0.511

Q: B5 was tested. Which “median log2 fold change” value did it give?
A: 0.135

Q: Which “median log2 fold change” value does the source give for B6 here?
A: 0.221

Q: How did the “median log2 fold change” value turn out when B7 was run?
A: 0.0842

Q: How did the “median log2 fold change” value turn out when B8 was run?
A: 0.0352

Q: Which “median log2 fold change” value does the source give for B9 here?
A: 0.243

Q: With B10 as the binder, how does the “median log2 fold change” value read?
A: -0.00138

Q: B11 was tested. Which “median log2 fold change” value did it give?
A: 0.00315

Q: How did the “median log2 fold change” value turn out when B12 was run?
A: -0.0318

Q: With B13 as the binder, how does the “median log2 fold change” value read?
A: 0.168

Q: How did the “median log2 fold change” value turn out when B14 was run?
A: -0.0799

Q: B15 was tested. Which “median log2 fold change” value did it give?
A: -0.22

Q: B16 was tested. Which “median log2 fold change” value did it give?
A: 0.458

Q: How did the “median log2 fold change” value turn out when B17 was run?
A: 0.0723

Q: With B18 as the binder, how does the “median log2 fold change” value read?
A: 0.337

Q: B19 was tested. Which “median log2 fold change” value did it give?
A: 0.178

Q: Which “median log2 fold change” value does the source give for B20 here?
A: 0.279

Q: With B21 as the binder, how does the “median log2 fold change” value read?
A: 0.186

Q: For B22, which “median log2 fold change” value is on record?
A: -0.399

Q: How did the “median log2 fold change” value turn out when B23 was run?
A: -0.574

Q: With B24 as the binder, how does the “median log2 fold change” value read?
A: 0.112

Q: Which “median log2 fold change” value does the source give for B25 here?
A: 0.247

Q: For B26, which “median log2 fold change” value is on record?
A: -0.0376

Q: For B27, which “median log2 fold change” value is on record?
A: -0.0153

Q: For B28, which “median log2 fold change” value is on record?
A: 0.271

Q: For B29, which “median log2 fold change” value is on record?
A: 0.0035
